Several values for one entry are separate records, joined by “and”; a condition that tells them apart may be missing. Equal entries are not always repeated. The whole screen tested about 360,000 compounds, of which about 6,000 (1.7%) were called active. This list was built around the results that the source calls inconclusive (neither active nor inactive); the mix of calls is not that of the screen. Calls come from the whole dose curve; as a rule, active = well fitted cell-killing curve with a large enough effect; inconclusive = small, poorly fitted or top-dose-only effect, or effect the other way; inactive = flat fitted curve, though single readings scatter. Potencies beside an inconclusive call are fits to weak or partial responses and may not hold up.
experiment: qHTS for induction of synthetic lethality in tumor cells producing 2HG: qHTS for the HT-1080-NT fibrosarcoma cell line; conditions: HT-1080-NT fibrosarcoma viability, CellTiter-Glo ATP luminescence, 48 h; activity, negative = less viability: at 46.1 µM (top of the series) unless noted;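 note: NT is the 2HG producing partner of a matched IDH1 knockdown line; nearly all actives have a fitted effect of over 55% in size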;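 for activity, negative = less viability: 0% = DMSO-treated cells and -100% = media-only wells without cells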
Summary of the method: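 750 cells/well, RPMI + 5% FBS; 2 h settle, compound pin-transfer, 48 h at 37 degrees C. CellTiter-Glo 10 min RT, luminescence. Normalized to DMSO and media-only wells.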
Potency is the fitted concentration of half-maximal effect; tags give direction and shape of the fitted curve.

With `Cn1c(=O)c2cc(NC(=O)CCc3ccccc3)ccc2n1-c1ccccc1F` as the compound, how does the Potency read?
The Potency was inconclusive: 2.31 µM [cytotoxic, full curve].

Which Potency does the source give for `CC(=O)Nc1ccc(NC(=O)CC(NC(=O)c2ccccc2)c2ccccc2)cc1` (stereo unspecified) here?
Its Potency is inconclusive: 25.9 µM [cytotoxic, single point].

For `Cc1cccc(CN2CCN(C(c3ccccc3)c3ccc(Cl)cc3)CC2)c1` (stereo unspecified), which Potency is on record?
Its Potency is inconclusive: 16.4 µM [cytotoxic, single point].

With `COCCN(CCOC)S(=O)(=O)c1ccc(C(=O)Nc2c(C)n(C)n(-c3ccccc3)c2=O)cc1` as the compound, how does the Potency read?
The Potency was “inactive”.

Which activity, negative = less viability does the source give for `Nc1ccc(C(=O)N/N=C\C=C\c2cccc([N+](=O)[O-])c2)cc1` here?
Its activity, negative = less viability is inconclusive: 32.8%.

With `COc1ccc(NC(=O)C(C2CC2)n2c(=O)c(-c3cc4ccccc4[nH]3)nc3ccccc32)cc1` (stereo unspecified) as the compound, how does the Potency read?
Its Potency is inconclusive: 23.1 µM [cytotoxic, partial curve].

With `CN(C)CCN(C(=O)c1ccc2c(c1)OCCO2)c1nc2c(Cl)cccc2s1` as the compound, how does the Potency read?
The Potency was “inactive”.

For `CC1(C(=O)NC2CCN(Cc3ccccc3)CC2)CCN1Cc1ccc2ccccc2c1` (stereo unspecified), which Potency is on record?
Its Potency is inconclusive: 20.6 µM [cytotoxic, single point].

For `O=C(N/N=C/c1cc(Br)ccc1O)c1ccncc1`, which Potency is on record?
The Potency was inconclusive: 4.61 µM [cytotoxic, full curve].

With `CC1CNCCN1S(=O)(=O)c1cccc2cnccc12` (stereo unspecified) as the compound, how does the Potency read?
The Potency was inconclusive: 20.6 µM [cytotoxic, partial curve] and inconclusive: 16.4 µM [cytotoxic, partial curve, poor fit].

For `O=C1C(=O)c2c(ccc3ccccc23)-c2ccccc21`, which Potency is on record?
The Potency was active: 4.61 µM.

Which Potency does the source give for `COc1ccc(CNCC(O)(c2ccc(Cl)cc2)c2ccc(Cl)cc2)cc1` here?
Its Potency is inconclusive: 29.1 µM [cytotoxic, single point].

For `CCN(CC)CCOCCOc1cc(C)c(Cl)c(C)c1`, which Potency is on record?
The Potency was inconclusive: 35.5 µM [cytotoxic, single point].

For `Cc1ccc(S(=O)(=O)N2CC(O)C[C@H]2C(=O)OCC(=O)N2CCN(c3ccc(F)cc3)CC2)cc1C` (stereo partly specified), which Potency is on record?
Its Potency is “inactive”.

Which Potency does the source give for `O=C(CCc1ccccc1)N[C@@H]1c2ccccc2CC[C@H]1OCc1ccccc1` here?
Its Potency is inconclusive: 18.4 µM [cytotoxic, single point].

With `C[C@H]1COC(=O)[C@H](Cc2ccc(F)cc2)C/C=C\C[C@H](CC(=O)N(CCO)Cc2ccccc2)C(=O)N1` as the compound, how does the Potency read?
Its Potency is “inactive”.

For `O=C(c1cc(COc2c(F)cccc2F)on1)N1CCC(c2ccncc2)CC1`, which Potency is on record?
The Potency was inconclusive: 5.8 µM [cytotoxic, full curve].

With `COCc1cc(C)nc(OCC(=O)N/N=C/c2ccccc2O)c1C#N` as the compound, how does the Potency read?
Its Potency is inconclusive: 20.6 µM [cytotoxic, partial curve].

With `CC(CNc1ccc(Cl)cc1)(CNc1ccc(Cl)cc1)[N+](=O)[O-]` as the compound, how does the Potency read?
Its Potency is inconclusive: 13 µM [cytotoxic, partial curve].

With `C=CCNc1ncnc2c1[nH]c1ccc(C)cc12` as the compound, how does the Potency read?
Its Potency is inconclusive: 22.4 µM [cytotoxic, single point].

For `COc1cccc(C(=O)N2CCC(n3nccc3NC(=O)CCOc3ccccc3)CC2)c1`, which Potency is on record?
Its Potency is “inactive”.

With `COc1ccc(C=C(C(=O)c2ccccc2)C(=O)c2ccccc2)cc1` as the compound, how does the Potency read?
Its Potency is active: 18.4 µM.

With `Cc1cnn(CCC(=O)NNC(=S)Nc2ccccc2)c1` as the compound, how does the Potency read?
The Potency was active: 7.08 µM.

For `C/C(=N\NC(=S)NC(C)C)c1ccc(Cl)s1`, which Potency is on record?
Its Potency is “inactive”.

Which Potency does the source give for `N#Cc1c(NC(=S)NC(=O)Cc2cccs2)sc2c1CCCCC2` here?
The Potency was “inactive”.

With `O=C(CSc1cn(CCNC(=O)c2cccs2)c2ccccc12)NC1CCCCC1` as the compound, how does the Potency read?
Its Potency is “inactive”.

With `COc1ccc(C(O)(CCc2ccccc2)CCN2CCCCC2)cc1` (stereo unspecified) as the compound, how does the Potency read?
Its Potency is “inactive”.

For `CCCC(=O)Nc1ccc2nc(SCC(=O)Nc3ccc(N4CCOCC4)c(Cl)c3)sc2c1`, which activity, negative = less viability is on record?
Its activity, negative = less viability is inconclusive: -30.5% [cytotoxic].

With `CC(C)c1ccccc1NC(=O)Cn1c(-c2ccccc2Cl)nc2ccccc21` as the compound, how does the Potency read?
Its Potency is “inactive”.

For `COc1ccc(NC(=O)CSc2n[nH]c(N)n2)cc1OC`, which Potency is on record?
Its Potency is “inactive”.

For `CC(=O)Nc1ccc(S(=O)(=O)NCc2ccc(C(=O)NC(C)c3ccccc3)cc2)cc1` (stereo unspecified), which Potency is on record?
Its Potency is “inactive”.

Which Potency does the source give for `Cn1c(=O)oc2cc(S(=O)(=O)NCCC(=O)N3CCc4ccccc4C3)ccc21` here?
The Potency was inconclusive: 8.91 µM [cytotoxic, partial curve].

With `Cc1ccccc1CN1CCNC(=O)C1CC(=O)NC1CCCCCCC1` (stereo unspecified) as the compound, how does the Potency read?
The Potency was “inactive”.

With `COc1ccc(NC(C)=[N+](C)CCNS(=O)(=O)c2ccc(Cl)cc2)cc1` as the compound, how does the Potency read?
Its Potency is inconclusive: 10.3 µM [cytotoxic, partial curve].

With `Cc1cc(C)cc(Oc2cc(NC(=O)c3cn(C)nc3C)cc([N+](=O)[O-])c2)c1` as the compound, how does the Potency read?
Its Potency is inconclusive: 25.1 µM [cytotoxic, single point].

For `Cc1ccc(OCC(=O)N2CCN(c3nnc(-c4ccc(C)cc4)c4ccccc34)CC2)cc1`, which Potency is on record?
Its Potency is active: 14.1 µM.

With `CS(=O)(=O)N(CC(O)CON=C1c2ccccc2-c2ccccc21)c1ccc(F)cc1` (stereo unspecified) as the compound, how does the Potency read?
Its Potency is inconclusive: 35.5 µM [cytotoxic, single point].

Which Potency does the source give for `CC1(C)Cc2c(sc3[nH]c(=S)n(Cc4ccco4)c(=O)c23)CO1` here?
The Potency was inconclusive: 14.1 µM [cytotoxic, single point].

With `CCc1ccc(C(=O)NNc2ccc(C)c(Cl)c2)cc1` as the compound, how does the Potency read?
Its Potency is inconclusive: 3.66 µM [cytotoxic, full curve, poor fit].

For `CC(=O)N1CCC(N2CCN(c3ccccc3F)CC2)CC1`, which Potency is on record?
The Potency was “inactive”.

With `O=C(/C(=C/O)N=Nc1ccccc1)c1ccc(Cl)cc1` as the compound, how does the Potency read?
The Potency was active: 16.4 µM.

Which Potency does the source give for `Cc1cccc(C)c1NC(=O)CN1C(=O)C2CC=CCC2C1=O` (stereo unspecified) here?
The Potency was “inactive”.

With `Cc1ccccc1S(=O)(=O)NCc1ccc(N2CCN(C)CC2)cc1` as the compound, how does the Potency read?
The Potency was inconclusive: 29.1 µM [rising, single point].

Which Potency does the source give for `CC(C)(C)NC(=O)CSc1ncnc2c1nnn2Cc1ccccc1Cl` here?
The Potency was inconclusive: 29.1 µM [cytotoxic, single point].

With `C/C(=N\NC(=O)c1cccc2ccccc12)c1cccs1` as the compound, how does the activity, negative = less viability read?
The activity, negative = less viability was inconclusive: 31.6%.

With `CCCc1c(-c2cccc(Br)c2)ncn1Cc1ccccc1OC` as the compound, how does the Potency read?
Its Potency is inconclusive: 20.6 µM [cytotoxic, single point].

Source: PubChem BioAssay AID686970 (National Center for Advancing Translational Sciences (NCATS), 2013)
